In all, about 110,000 compounds were measured (“z-score”: median about -0.1, highest 2% from about 2 on). Some of the results follow.
molecular target: Metabotropic glutamate receptor 8 (Rattus norvegicus) (UniProt P70579); experiment: mGluR8 Gi/Go-coupled signaling modulation – cell-based, rat, thallium flux, HTS, primary screen (AID 488969); conditions: HEK293 rat mGluR8, GIRK (G protein-gated inwardly rectifying potassium channel) thallium flux, FluoZin2; at 10 µM; stronger effect = higher value; submaximal glutamate (EC20) added with thallium
UniProt P70579, sequence (P70579 whole entry, looked up): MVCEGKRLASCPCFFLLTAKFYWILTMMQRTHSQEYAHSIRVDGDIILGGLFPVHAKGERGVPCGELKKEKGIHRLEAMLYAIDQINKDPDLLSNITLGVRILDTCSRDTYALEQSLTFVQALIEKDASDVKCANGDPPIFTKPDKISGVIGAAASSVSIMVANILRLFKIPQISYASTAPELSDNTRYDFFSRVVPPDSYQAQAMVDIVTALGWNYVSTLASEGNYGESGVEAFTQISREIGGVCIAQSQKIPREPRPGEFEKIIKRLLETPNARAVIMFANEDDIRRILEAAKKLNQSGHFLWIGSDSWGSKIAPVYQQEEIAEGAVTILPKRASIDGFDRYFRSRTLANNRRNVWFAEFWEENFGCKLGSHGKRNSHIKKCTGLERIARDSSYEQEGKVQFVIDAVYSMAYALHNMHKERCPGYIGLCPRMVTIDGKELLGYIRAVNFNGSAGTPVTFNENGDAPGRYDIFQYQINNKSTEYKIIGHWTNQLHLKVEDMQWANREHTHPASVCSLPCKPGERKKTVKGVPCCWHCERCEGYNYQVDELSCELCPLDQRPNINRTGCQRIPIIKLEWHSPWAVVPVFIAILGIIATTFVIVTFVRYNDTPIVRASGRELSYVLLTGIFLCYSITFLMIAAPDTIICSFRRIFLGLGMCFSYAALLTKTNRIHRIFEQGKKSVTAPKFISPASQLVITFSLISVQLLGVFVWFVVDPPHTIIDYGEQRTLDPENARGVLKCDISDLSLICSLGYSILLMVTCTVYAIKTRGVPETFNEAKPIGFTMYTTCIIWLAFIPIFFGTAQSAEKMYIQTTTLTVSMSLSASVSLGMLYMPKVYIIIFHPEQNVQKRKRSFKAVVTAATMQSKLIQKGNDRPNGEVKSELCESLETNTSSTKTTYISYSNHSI

| Compound | z-score |
| --- | --- |
| CC(C)C(=O)Nc1ccc2c3c(cccc13)CC2 | -0.101 |
| CCCCNc1oc(-c2cccs2)nc1S(=O)(=O)c1ccccc1 | 1.05 |
| Cc1ccc(CNC(=O)COC(=O)c2cc3c(s2)CCC(C)C3)cc1 (stereo not given) | 0.0313 |
| Cc1ccc(NC(=O)N(Cc2cc3cc(C)cc(C)c3[nH]c2=O)CC2COCCO2)cc1 (stereo not given) | -0.489 |
| Cc1ccc(CCC2C3=C(CCCC3=O)OC3=C2C(=O)CCC3)cc1 | -0.591 |
| O=C(COC(=O)c1ccc2c(c1)C(=O)N(CCc1ccccc1)C2=O)Nc1ccc(OC(F)F)cc1 | -0.206 |
| COCCNC(=O)c1nc2c(nnn2Cc2cc(C)ccc2C)c(=O)[nH]1 | -0.274 |
| CC(=O)c1cc(F)c(N2CCCC2)cc1C | 1.93 |
| CCOc1ccc(NC(=O)CN(Cc2ccccc2)S(C)(=O)=O)cc1 | -0.0617 |
| O=C(O)c1ccc(N2C(=O)c3cccc(Oc4ccc(Cl)cc4)c3C2=O)cc1 | 0.79 |
| O=C1COc2ccc(C(=O)c3ccccc3)cc2CN1 | -0.0166 |
| COc1ccc(N/C(C)=C/C(=O)c2ccccc2)cc1 | -0.252 |
| CCc1nnc(NC(=O)CSc2nnnn2C)s1 | 1.15 |
| c1csc(Cn2c(-c3cccs3)nc3ccccc32)c1 | -1.65 |
| Cc1ccc(CCN2CC(C(=O)NC3CCCC3)CC2=O)cc1 (stereo not given) | 0.626 |
| O=[N+]([O-])c1cccc(C(=Nc2ccccc2)NO)c1 | -0.0036 |
| O=C(NCc1ccccc1)C1CCN(S(=O)(=O)c2cccc3cccnc23)CC1 | -0.478 |
| CCCCC(=O)N(c1ccc(C)c(C)c1)C1C=CS(=O)(=O)C1 (stereo not given) | 0.0839 |
| CC(=NC1CC1)C1=C(O)c2ccccc2C1=O | -0.0848 |
| CCc1nc(SCC(=O)O)c(C#N)cc1C | -0.171 |
| O=C(COc1ccc(Br)cc1)N/N=C1\SCC(=O)N1c1ccc(F)cc1 | 0.0551 |
| Cc1nc(-c2ccc(S(=O)(=O)N3CCCCCC3)cc2)cs1 | 0.287 |
| O=C(CCNS(=O)(=O)c1ccc(Br)s1)Nc1ccc(Cl)cc1 | -0.0218 |
| Cc1sc2ncnc(SCC(=O)N3CCC(c4noc5ccc(F)cc45)CC3)c2c1C | 0.0389 |

| Compound | z-score |
| --- | --- |
| CN(C)S(=O)(=O)c1ccc(NC(=O)N2CCN(c3ccccc3Cl)CC2)cc1 | -0.0667 |
| CS(=O)(=O)CCC(C(=O)OCC(=O)c1ccc(Cl)cc1)N1C(=O)c2ccccc2C1=O (stereo not given) | -0.0679 |
| CC(C)(C)c1ccc(C2(C)NC(=O)N(CC(=O)c3ccc[nH]3)C2=O)cc1 (stereo not given) | -0.552 |
| COc1cc(/C=C/C(=O)OCC(=O)c2c[nH]c3ccccc23)ccc1OC(F)F | -0.0741 |
| CC(C)OC(=O)c1cccnc1N1CCN(c2ccc(F)cc2)CC1 | -0.216 |
| O=C(NCc1ccccc1)C1CCC1 | -0.0348 |
| CCc1nc2c(nnn2Cc2ccc(F)cc2)c(=O)[nH]1 | 0.331 |
| CCOC(=O)Cc1csc(NC(=O)c2ccc(S(=O)(=O)N3CCCC3)cc2)n1 | 0.525 |
| C=CCNc1cc(C)oc(=O)c1C(=O)CCC | -0.519 |
| CCc1ccc(-c2nc(-c3ccncc3)no2)cc1 | 2.31 |
| CCN1CCN(C2=C(Cl)C(=O)N(Cc3ccccc3)C2=O)CC1 | -0.191 |
| Cc1c(CNC(=O)c2cnn3c2NC(c2ccccc2)CC3C(F)(F)F)cnn1C (stereo not given) | -0.867 |
| COc1ccc(Cc2nc3ccccc3n2CC(=O)N/N=C/c2ccc(O)cc2)cc1OC | 0.0209 |
| CCCOc1nc2c(c(=O)n(C)c(=O)n2C)n1CC | 0.0437 |
| COc1cccc(-n2c(=O)[nH]cc(C(=O)Nc3ccc(NC(C)=O)cc3)c2=O)c1 | -0.503 |
| CC(C)CN(CC(C)C)c1nnc(NC(=O)Cn2c(=O)oc3ccccc32)s1 | -0.241 |
| Cc1ccc(Oc2cc(C#N)c(C#N)cc2-n2nnc3ccccc32)cc1C | 0.332 |
| Cc1cc(C(=O)Nc2cccnc2Cl)on1 | 0.294 |
| O=C(C1CCN(Cc2ccc(F)cc2)CC1)N(CCO)Cc1ccccc1 | -0.0919 |
| CCc1ccc(NC(=O)c2ccc(C3SCC(=O)N3CCc3ccccc3)cc2)cc1 (stereo not given) | -0.617 |
| O=C(c1ccco1)c1cn[nH]c1-c1ccc(Cl)cc1O | 0.507 |
| COc1ccccc1NC(=O)c1csc(-n2nc(C)cc2C(F)(F)F)n1 | -0.44 |
| COC(=O)c1ccc(NC(=O)NS(=O)(=O)c2ccc(C)cc2)cc1 | 0.167 |
| CCOC(=O)N1CCN(C(=O)C2CCN(S(=O)(=O)c3cc(Cl)ccc3Cl)CC2)CC1 | 0.678 |

| Compound | z-score |
| --- | --- |
| CC(CC(=O)O)CC(=O)Nc1ccccc1C(=O)O (stereo not given) | -0.0813 |
| COCC(C)n1c(C)cc(C(=O)CN2C(=O)NC3(CCCCC3C)C2=O)c1C (stereo not given) | -0.246 |
| Cc1ccccc1OCCN1C(=O)C(=O)c2cccc(C)c21 | -0.142 |
| COCCn1c(SCc2ccc(C(=O)OC)o2)nc2ccccc2c1=O | -0.0699 |
| O=C(/C=C/c1ccc2c(c1)OCO2)NCCSCc1c(Cl)cccc1Cl | -0.204 |
| CS(=O)(=O)N(CC(=O)NC1CC2CCC1C2)c1cccc(C(F)(F)F)c1 (stereo not given) | -0.272 |
| COc1cccc(CN(CC(=O)NC2CCCC2)C(=O)CCC(=O)Nc2cc(C)on2)c1 | 0.081 |
| CCCOC(=O)CSC1=C(C#N)C(c2ccc3c(c2)OCO3)CC(=O)N1 (stereo not given) | -0.1 |
| Cc1c(C(=O)Nc2cccc(Cl)c2)c2ccccn2c1CCc1ccncc1 | -0.336 |
| COc1ccc(CNC(=O)c2ccc(-c3ccccc3)cc2)cc1 | -0.113 |
| O=C(COC(=O)c1cccc(S(=O)(=O)N2CCOCC2)c1)Nc1ccc2c(c1)OCO2 | 0.39 |
| CN(Cc1cnn(C)c1)C(=O)C1CCCCC1C(=O)O (stereo not given) | -0.131 |
| Cc1cccc(-n2c(=O)[nH]c3c(C(N)=O)nc(CC(C)C)nc32)c1 | -0.133 |
| COc1ccccc1Cn1nnc2c(=O)[nH]c(C3CCN(C(=O)c4ccccc4Cl)CC3)nc21 | -1.41 |
| CCOC(=O)CSc1n[nH]c(NC(=O)c2cccc(C)c2)n1 | 2.67 |
| CCc1ccc(OCC(=O)N/N=C/c2cc([N+](=O)[O-])ccc2N2CCCCCC2)cc1 | -0.107 |
| CNC(=O)NC(=O)COC(=O)c1ccc(-n2c(C)ccc2C)cc1 | -0.452 |
| O=C(CNC(=O)c1ccncc1)N/N=C/c1cc(Br)ccc1O | -0.138 |
| CN1CCN(CCC(=O)Nc2cccc(F)c2)CC1 | 1.24 |
| Cc1cc(Cl)ccc1OC(C)C(=O)NCCc1ccc2c(c1)OCCO2 (stereo not given) | -0.267 |
| C[N+]1(CCCCCCC(=O)/C=N/O)CCCCCC1 | -0.0109 |
| COc1cc(CN2CCN(c3ccc(C)cc3)CC2)cc([N+](=O)[O-])c1O | -0.348 |
